The labels stand for the following.
B1: CPEB3 Ribozyme (parent)
chain: UAACAGGGGGCCACAGCAGAAGCGUUCACGUCGCAGCCCCUGUCAGAUUCUGGUGAAUCUGCGAAUUCUGCUGUAUAUCUC

The source gives no read counts; variants with many changes may rest on few reads.

The data set covers variants of B1. Put plainly: self-cleavage, relative activity (ratio to wild type); higher = more cleavage; in vitro, sequencing. In a few lines: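 CPEB3 self-cleaving ribozyme mutant libraries were made by rounds of error-prone PCR, barcoded, and transcribed in vitro with T7 RNA polymerase for 5 hours at 37°C. Cleavage occurred during transcription and a 15 min DNase I step before EDTA stop. RNAs were reverse transcribed with template switching and Illumina-sequenced, with DNA sequencing mapping barcodes to variants. Relative activity is the variant's cleaved/total read fraction divided by wild type's (minimum 5 reads), averaged across three batches.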
For UAACAGGGGGGCACGGCAGAAGCGUUCACGUCGCAGCACCUGACAGAUUCUGGUGAAUCUGCGAAUUCCGCUGUAUAUCUC [C11G A15G C38A U43A U69C], the self-cleavage turned out to be 0.01.
Then UAACAGGGGGGCACAGCAGGAGCGUUCACGUCGCAGCCCCCGUCAGAUUCUGAUGAAUCUGCGAAUACUGCUGUAUAUCUC [C11G A20G U41C G53A U67A], with 0.18; and UAACAGGGGGACACAGCAGAAGCGUUCACGUCGCAGCCCAUGUCAGAUUCUGGUGAAUCUGGGAAUUCUGCUGUAUAUCUC [C11A C40A C62G], with 0.05.
As for UAACAGGGGGGCACAGCAGGAGCGUUCACGUCGUAGCCCCUGUCAGGCUCCGAUGAAUCUGCGAAUUCUGCUGUAUAUCUC [C11G A20G C34U A47G U48C U51C G53A], the self-cleavage was found to be 0.04.
Regarding UAACAGGGGGGCGCAGCAGAAGCGUUCACGUCGCAGCCCCAGUCAGAUUCCGGUGAGUCUGCGAAAUCUGCUGUAUAUCUC [C11G A13G U41A U51C A57G U66A], the self-cleavage was 0.08.
For UAACAGGGGGGCACAGCGGAAGCGUUCACGUCGCAGCCCCAGUCAGAUUCUGGUGAAUCUGCGAAUUCUGCUGUAUAUCUC [C11G A18G U41A], the self-cleavage was 0.09.
Then UAACAGGGGGGCACAGCUGAAGCGUUCACGUCGCAGCCCCUGUCAGAUCCUGGUGAAUCUGCGAAUUCUGCUGUAUAUCUC [C11G A18U U49C], with 0.04.
Consider UAACAGGGGGACACAGCAGAAGCGUUCACGUCGCUGCCCCUGUCAGAUUCUGGAGAAUCUGCGAAUUCUGCUGUAUAUCCC [C11A A35U U54A U80C], for which the self-cleavage stood at 0.38.
With UAACAGGGGGACACAGCAGAAGCGUCCACGUCGCAGCCCCUGUCAGAUUCUGGUGAAUCUGCGAAUUCUGCUAUAUAACUC [C11A U26C G73A U78A], the self-cleavage was 0.2.
Take UAACAGGGGGACACAGCAGAAGCGCCCACGUCGCAGCCCCUGUCAGAUUCUGGUGAAUCUGCGAAUUCUGCUGUAUAUCUC [C11A U25C U26C]: the self-cleavage is 0.53.
Turning to UAACAGGGGGGCACAGCGGAAGCGUUCACGCCGCACCCCCUGUCAGAUGCUGGUGAAUCAGCGAAUUCUGCUGCAUAUCUC [C11G A18G U31C G36C U49G U60A U74C], the self-cleavage was determined as 0.15.
UAACAGGGGGACACAGCAGAAGCGUUCACGUUGCAGCCCCAGUCAGAUUCUGGUGAAACUGAGAAUUCUGCUGUAUAUCUC [C11A C32U U41A U58A C62A]: the self-cleavage stood at 0.04.
For the variant UAACAGGGGGGCACGGCAGAAGCGUUCACGUCGCAACCCCUGUCAGAUUCUGGUGAAUCCGCGAAUUCUGCUGUAUAUCUC [C11G A15G G36A U60C], the self-cleavage amounted to 0.08.
Regarding UAACAGGGGGACACAGCAGAAGCGUUAACGUCGCAGCCCCUGUCAGAUUCUGGUGAAUCUGCGAAUACUGCUGUAUAUCUC [C11A C27A U67A], the self-cleavage came to 0.09.
For UAACAGGGGGGCUCAGCAGAAGCGUGCACGUCGCAGCCCCUGUCAGAUUCUGGUGAAUCUGCGAAUUCUGCAGUAUAUCUC [C11G A13U U26G U72A], the self-cleavage was 0.07.
Regarding UAACAGGGGGACACAGCAGAAGCGUUCACGUCGCAGCCCCUGUCUGAUUCUGGUGAGUCUGCGAAUUCUGCUGUAUAUCUC [C11A A45U A57G], the self-cleavage worked out at 0.27.
The result for UAACAGGGGGACAAAGCAGAAGCGUUCACGUCGCAGCCCCUGUCAGAUUCUGGUGAAUCUGCGAAUCCUGCUGUUUAUCUC [C11A C14A U67C A75U] reads 0.09.
The result for UAACAGGGGGGCACAGCAGGAGCGUUCACGUCGCAGCCCCUGUCAGAUUCUGGAGAAUCUGCGAAUUCUGCUGUAUGUCUC [C11G A20G U54A A77G] reads 0.08; that for UAACAGGGGGGCACAGCAGAAGCGUUCCCGUCGCAGCCCCUGUCUGAUUCUGGUGAAUCUGCGAAUUCUGCUGUAUAUCUC [C11G A28C A45U], 0.09; that for UAACAGGGGGACACAGCAGAAGCGUUCGCGUCGCAGCCCCUGUCAGAUUCUGGUGAAUCUGCGAAUCCUGCUGUAUAUCUC [C11A A28G U67C], 0.16.
On to UAACAGGGGGACACAGCAGAAGCGUUCACGUCGCAGCCCCUGUCAGAUUCUGGUGAAUCUGCGGAUUCAGCAGUAUAUCUC [C11A A64G U69A U72A], for which the self-cleavage stood at 0.06.
Take UAACAGGGGGGCACAGCUGGAGCGUUCACGUCGCAGCCCCUGUCAGAUUCUGGUGAAUCUGCGAACUCUGCUGUAUAUCUC [C11G A18U A20G U66C]: the self-cleavage was 0.17.
The result for UAACAGGGGGGCUCAGCAGAAGCGCUCACGUCACAGCCCCUGUCAGAUUCUGGUGAAUCUGCGAAUUCUGCUGUAUAUCUC [C11G A13U U25C G33A] reads 0.05; that for UAACAGGGGGACACAGCAGAAGCGUUCACGUCGCAGCCCCUGUCAGAUUCUGGUGAAUCUGCGAACUCUGCUGCUUAUCCC [C11A U66C U74C A75U U80C], 0.1.
On to UAACAGGGGGACACAGCAGAAGCGUUCGCGUCGCAGCCCAUGUCAGAUUCUGGUGAAUCAGCGAAUUCCGCUGUACAUCUC [C11A A28G C40A U60A U69C U76C], for which the self-cleavage is 0.03.
For the variant UAACAGGGGGACACAGCAGAAGCGUCCACGUCGUAGCCCCUGUCAGAUUCUGGUGAAUCUGCGAAUUCUGCUGUAUAUCUC [C11A U26C C34U], the self-cleavage was found to be 0.07.
Turning to UAACAGGGGGGCGCAGCAGAAGCGUUCCCGUCGCCGCCCCAGUCAGAUUCUGGUGAAUCUGCGAAUUCCGCUGCAUAUCUC [C11G A13G A28C A35C U41A U69C U74C], the self-cleavage amounted to 0.04.
As for UAACAGGGGGGCCCAGCAGAAGCGUUCACGUCGCUGCCCCAGUCAGAUUCCGGUGGAUCUGCGAAUUCUGCUGUAUAUCCC [C11G A13C A35U U41A U51C A56G U80C], the self-cleavage turned out to be 0.35.
Then UAACAGGGGGGCACAGCUGAAGCGUUCACGUCGCAGCCCCUGUCUGAUUCUGGUGAAUCUGCGAAUUCAGCUGUAUAUCUC [C11G A18U A45U U69A], with 0.1; and UAACAGGGGGACACAGCAGAAGCGUUCACGUCGCAGCCCCUGUCAGAUUUUGGUGAAUCUGCGAAUUCCGCCGUACAUCUC [C11A C50U U69C U72C U76C], with 0.06.
For UAACAGGGGGACACAGCAGAAGCGUUCACGUCGCAGCCCCUGUCAGUUUCUGGCGAAUCUGCGAGAUCUGCUGUAUAUCUC [C11A A47U U54C A65G U66A], the self-cleavage was 0.05.
In the case of UAACAGGGGGACACAGCAGAAGCGUUCACGUCGCAGCCCCAGUCAGAUUCUGGUGAAUCUGCGAACUCUGCUGUAUAUCUC [C11A U41A U66C], the self-cleavage stood at 0.06.
With UAACAGGGGGGCACAGCAGAAGCGUUCACGUCGCGGCCCCUGUCGGAUUCUGGUGAAUCUGCGAAUUCUGCUGAAUAUCUC [C11G A35G A45G U74A], the self-cleavage was 0.33.
On to UAACAGGGGGGCACAGCAGAGGCGUUCACGUCGCAGCCCCUGUCAGAUCCUGGUGGAUCUGCGAAUUCUGCUGUAUAUCUC [C11G A21G U49C A56G], for which the self-cleavage worked out at 0.11.

(Values after the RNAGym collection of RNA variant scans (doi:10.1093/nar/gkz1192).)
